Assay results from PubChem BioAssay AID1259407 (Chemical Carcinogenesis Research Information System (CCRIS), 2018).
Entries after “also recorded” stand apart in the source; their conditions may differ. Some entries of the source have several records that differ or are many. This is not the full list of results. There may be further records. The rule behind the calls is not given here. Values that stand side by side do not match, cause unknown; some may be repeats, others may stem from another dose, organism or construct than stated. What stands in brackets tells the records apart. Letters count within one entry. Brackets with × count equal records among those shown.

System: CCRIS mutagenicity, Ames/micronucleus/aberration tests
Test: CCRIS mutagenicity studies
[1] = Test System: AMES SALMONELLA TYPHIMURIUM, Strain/Indicator: TA98, Metabolic Activation: NONE, Method: PREINCUBATION
[2] = Test System: AMES SALMONELLA TYPHIMURIUM, Strain/Indicator: TA100, Metabolic Activation: NONE, Method: STANDARD PLATE
[3] = End Point: IN VITRO CHROMOSOMAL ABERRATIONS, Test System: CHL CELLS, Metabolic Activation: NONE
[4] = End Point: IN VITRO CHROMOSOMAL ABERRATIONS, Test System: CHO CELLS, Metabolic Activation: NONE

SMILES: O=[N+]([O-])CCO
- mutagenic call (Test System: AMES SALMONELLA TYPHIMURIUM, Strain/Indicator: TA98, Metabolic Activation: HAMSTER, LIVER, S-9, AROCLOR 1254 (30%), Method: PREINCUBATION): active; positive and inactive; negative
- mutagenic call [1]: active; positive and inactive; negative
- mutagenic call (Test System: AMES SALMONELLA TYPHIMURIUM, Strain/Indicator: TA98, Metabolic Activation: RAT, LIVER, S-9, AROCLOR 1254 (30%), Method: PREINCUBATION): active; positive and inactive; negative

SMILES: CCS(=O)(=O)CCn1c([N+](=O)[O-])cnc1C
- mutagenic call (Test System: AMES SALMONELLA TYPHIMURIUM, Strain/Indicator: TA98, Metabolic Activation: NONE, Method: STANDARD PLATE): inactive; negative and active; positive
- mutagenic call (Test System: AMES SALMONELLA TYPHIMURIUM, Strain/Indicator: TA100(NR), Metabolic Activation: NONE, Method: STANDARD PLATE): inactive; negative and active; positive

SMILES: O=[N+]([O-])c1cccc2ccccc12
- mutagenic call (Test System: E. COLI, Strain/Indicator: WP2 UVRA, Metabolic Activation: HAMSTER, LIVER, S-9, Method: STANDARD PLATE): inactive; negative (2×) and active; positive

SMILES: CC1CO1 (stereo unspecified)
- mutagenic call (End Point: IN VITRO CHROMOSOMAL ABERRATIONS, Test System: CHO CELLS, Metabolic Activation: RAT, LIVER, S-9, AROCLOR 1254): active; positive; weak response and active; positive

SMILES: C=O
- mutagenic call [1]: inactive; negative [study A] and active; positive [study B] and active; positive [study C]
- mutagenic call [2]: active; positive [study A] and inactive; negative [study B] and active; positive [study C]
- mutagenic call (Test System: AMES SALMONELLA TYPHIMURIUM, Strain/Indicator: TA100, Metabolic Activation: RAT, LIVER, S-9, AROCLOR 1254, Method: PREINCUBATION): active; positive [study A] and inactive; negative [study B]
- mutagenic call (Test System: AMES SALMONELLA TYPHIMURIUM, Strain/Indicator: TA102, Metabolic Activation: NONE, Method: STANDARD PLATE): active; positive [study A] and active; positive [study B] and inactive; negative [study C]
- mutagenic call (Test System: AMES SALMONELLA TYPHIMURIUM, Strain/Indicator: TA102, Metabolic Activation: RAT, LIVER, S-9, AROCLOR 1254, Method: STANDARD PLATE): active; positive [study A] and inactive; negative [study B] and inactive; negative [study C]
- mutagenic call (Test System: AMES SALMONELLA TYPHIMURIUM, Strain/Indicator: TA1537, Metabolic Activation: NONE, Method: STANDARD PLATE): inactive; negative and active; positive
- mutagenic call (Test System: E. COLI, Strain/Indicator: WP2 (PKM101), Metabolic Activation: NONE, Method: STANDARD PLATE): active; positive [study A] and inactive; negative [study B] and inactive; negative [study C]

SMILES: O=P1(N(CCCl)CCCl)NCCCO1 (stereo unspecified)
- mutagenic call (Test System: AMES SALMONELLA TYPHIMURIUM, Strain/Indicator: TA98, Metabolic Activation: RAT, LIVER, S-9, AROCLOR 1254, Method: STANDARD PLATE): inactive; negative [study A] and active; positive [study B]
- mutagenic call [2]: active; positive [study A] and inactive; negative [study B]
- mutagenic call (Test System: AMES SALMONELLA TYPHIMURIUM, Strain/Indicator: TA1537, Metabolic Activation: RAT, LIVER, S-9, AROCLOR 1254, Method: STANDARD PLATE): inactive; negative [study A] and active; positive [study B]

SMILES: [Cl][Hg][Cl]
- mutagenic call (End Point: IN VITRO CHROMOSOMAL ABERRATIONS, Test System: HUMAN PERIPHERAL LYMPHOCYTES, Metabolic Activation: NONE): active; positive (structural changes); statistically significant at 0.1 and 1000 ug leve; also recorded: active; positive (structural changes)

SMILES: CC(C)Br
- mutagenic call (Test System: AMES SALMONELLA TYPHIMURIUM, Strain/Indicator: TA100, Metabolic Activation: NONE, Method: PREINCUBATION): active; positive [study A] and inactive; negative [study B]
- mutagenic call (Test System: AMES SALMONELLA TYPHIMURIUM, Strain/Indicator: TA100, Metabolic Activation: RAT LIVER S-9, PHENOBARBITAL AND BETA-NAPHTHOFLAVONE, Method: PREINCUBATION): active; positive and inactive; negative
- mutagenic call (Test System: E.COLI, Strain/Indicator: WP2UVRA, Metabolic Activation: NONE, Method: PREINCUBATION): active; positive and inactive; negative
- mutagenic call (Test System: E.COLI, Strain/Indicator: WP2UVRA, Metabolic Activation: RAT LIVER S-9, PHENOBARBITAL AND BETA-NAPHTHOFLAVONE, Method: PREINCUBATION): inactive; negative and active; positive

SMILES: BrCCBr
- mutagenic call [3]: active; positive (structural changes) (2×); also recorded: inactive; negative; authors report equivocal results for structural changes at 0.32 mg/ml
- mutagenic call [2]: active; positive [study A] and active; positive [study B] and inactive; negative [study C]
- mutagenic call (Test System: E. COLI, Strain/Indicator: WP2 UVRA, Metabolic Activation: HAMSTER, LIVER, S-9, AROCLOR 1254, Method: PREINCUBATION): active; positive (2×) and inactive; negative
- mutagenic call (Test System: E. COLI, Strain/Indicator: WP2 UVRA, Metabolic Activation: HAMSTER, LIVER, S-9, Method: PREINCUBATION): active; positive and inactive; negative
- mutagenic call (Test System: E. COLI, Strain/Indicator: WP2 UVRA, Metabolic Activation: MOUSE, LIVER, S-9, AROCLOR 1254, Method: PREINCUBATION): active; positive and inactive; negative
- mutagenic call (Test System: E. COLI, Strain/Indicator: WP2 UVRA, Metabolic Activation: MOUSE, LIVER, S-9, Method: PREINCUBATION): active; positive and inactive; negative
- mutagenic call (Test System: E. COLI, Strain/Indicator: WP2 UVRA, Metabolic Activation: NONE, Method: PREINCUBATION): active; positive and inactive; negative (2×)
- mutagenic call (Test System: E. COLI, Strain/Indicator: WP2 UVRA, Metabolic Activation: RAT, LIVER, S-9, Method: PREINCUBATION): inactive; negative and active; positive

SMILES: ClC(Cl)(Cl)c1nc(-c2ccc3c(c2)OCO3)nc(C(Cl)(Cl)Cl)n1
- mutagenic call (End Point: In vitro chromosomal aberrations, Test System: Chinese hamster lung (CHL/IU) cells, Metabolic Activation: None): active; positive (structural changes and ploidy) (2×); also recorded: active; positive (structural changes and ploidy). ploidy response weak and not dose rela

SMILES: ClC(Br)Br
- mutagenic call (End Point: IN VITRO CHROMOSOMAL ABERRATIONS, Test System: CHINESE HAMSTER LUNG FIBROBLAST CELLS (CHL/IU), Metabolic Activation: NONE): active; positive (ploidy) and inactive; negative
- mutagenic call (End Point: IN VITRO CHROMOSOMAL ABERRATIONS, Test System: CHO-LB CELLS, Metabolic Activation: RAT, LIVER, S-9, AROCLOR 1254): active; positive and inactive; negative

SMILES: O=C1C=Cc2ccccc2C1=O
- mutagenic call [1]: active; positive [study A] and inactive; negative [study B] and inactive; negative [study C]

SMILES: COC(=O)c1ccccc1C(=O)OC
- mutagenic call [2]: inactive; negative [study A] and active; positive [study B]

SMILES: O=C(Br)CBr
- mutagenic call [3]: active; positive (structural changes) (2×) and inactive; negative
- mutagenic call (Test System: E. COLI, Strain/Indicator: WP2UVRA/PKM101, Metabolic Activation: NONE, Method: PREINCUBATION): inactive; negative and active; positive

SMILES: [Cl][Sn][Cl]
- mutagenic call [4]: active; positive; precipitation occurred at 500 and 750 ug/ml; also recorded: active; positive

SMILES: COc1cc(NC(C)CCCN)c2ncccc2c1 (stereo unspecified)
- mutagenic call [2]: inactive; negative [study A] and active; positive [study B]

SMILES: NC(=S)NNC(N)=S
- mutagenic call (End Point: IN VITRO CHROMOSOMAL ABERRATIONS, Test System: CHINESE HAMSTER OVARY CELLS, Metabolic Activation: NONE): active; positive and inactive; negative

SMILES: CCN(CC)C(=S)S
- mutagenic call [4]: active; positive [study A] and inactive; negative [study B]
